Measured values from the supplement of paper PMC11417369.
This is one part of the list.

What follows are sequences tested on PfHDP1 homeodomain (GST-tagged) (assay: gcPBM binding intensity (ln(normalized median fluorescence intensity)); higher = stronger DNA binding).
Outline: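 The binding buffer was 1× PBS containing 1% milk, 0.2 mg/ml BSA, 0.5% salmon testes DNA and 0.03% Triton X-100. In it, GST-tagged P. falciparum DNA-binding domains expressed in E. coli were applied for 1 h to an Agilent 4 × 180k array of primer-extended double-stranded 36-bp intergenic genomic probes plus negative controls. Binding intensity, read with Alexa488 anti-GST antibody and a 488 nm scan, is the highest Masliner-normalised natural-log median intensity across replicate spots of either probe orientation.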

Row | Sequence | gcPBM binding intensity (ln)
1 | ATATAAGTGTATCTAACACACAAATATATAAAAATG [CACACA_site1956] | 6.53
2 | ATAATTATATGGCTAGCACACAATAAATAATTATAT [CACACA_site3815] | 6.56
3 | ACAAGTTAAAATATTACACACATATAAATATTTATA [CACACA_site7467] | 6.6
4 | AAGAAAAATATTCGTGTGCACAGAAGTATATGTGTG [GTGCAC_site9814] | 11
5 | TATTGTAAGAAAGGCACACAGATAAAATTATTATAT [CACACA_site2921] | 6.76
6 | GAGTTAATTTTTTCGTGTACTTGAAAATATTTTTTT [XGTACX_site6392] | 6.78
7 | TTACCTTTTTCTAATGGTACACATAAAATATCATTT [XGTACX_site6825] | 6.08
8 | TTTTCTTACACGAATTTTAAATTCAATATTAAACAT [CACACA_negctrl_site286] | 6.62
9 | GTGGAAATATAACACATTTTTTTTAATAATTATATT [TGCATGCA_negctrl_site522] | 5.93
10 | TTAGCAACTATTACTACACACATTTGTATATAACTT [CACACA_site6850] | 6.83
11 | ATAGTTTTATATAAATGTACAAATGATTTCAAATAG [XGTACX_site8236] | 6.55
12 | AACATGTATATATTATGTACATATGTTAAAATGATA [XGTACX_site6217] | 6.81
13 | TAGCGGCGGTATCATGCACACGTATATATTGTAACA [CACACA_site8453] | 7.83
14 | CTTAAATTTTTAAATACACACATACACCCATACACA [CACACA_site4461] | 7.25
15 | TTTTTTTTAAATATCACACACATATAATATATTCTA [CACACA_site3668] | 6.38
16 | AAACCCTATTCAATGCAATAATTTTATAATTTTTTT [TGCATGCA_negctrl_site434] | 6.75
17 | TAAATTAATACCTATGCACACATTTTTTTTTTTAAA [CACACA_site1238] | 8.59
18 | TTTATTATAATATGTTGTACAAGACGTTTCAGTATA [XGTACX_site4486] | 6.83
19 | AAATTATCTTAATAGGATGTTCAAGGAGAAAGATGA [CACACA_negctrl_site1032] | 6.71
20 | TCTCTCATTTATTTTTGTACTTAATCCAGCACGTTT [XGTACX_site1369] | 6.61
21 | ACATATTAATTATAAAGTACATATATATATATATAT [XGTACX_site4540] | 9.08
22 | TTCATATTATAGTGCACACAAAAATATATATATGGT [CACACA_site2855] | 10.4
23 | TTGTTTGTTGTAACGTGTACAGATAAAAATAAAGGG [XGTACX_site375] | 7.43
24 | GCTTCATTTTAAACTTGTACTTATTTTTTGGTAAAT [XGTACX_site8879] | 6.98
